For 14 molecules, binding signal results are on record in paper PMC12136788.

Sequences and labels used below:
T1: UNK ZnF1-3 (human, UniProt Q9C0B0 31-174)
T1 sequence: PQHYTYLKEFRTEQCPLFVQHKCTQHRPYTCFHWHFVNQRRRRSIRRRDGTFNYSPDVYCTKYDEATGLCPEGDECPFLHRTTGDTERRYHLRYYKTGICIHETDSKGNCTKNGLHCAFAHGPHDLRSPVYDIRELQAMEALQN

B1: chr11:54532201:54532202:-_ENSMUSG00000052298_ENSMUST00000064104|mus_mus|motif|central (ssRNA)
RNA: GGGAGUUCUACAGUCCGACGAUCCAAUCAAUCAAAGGCAGUUAGAUAGUAAGCAAAGUGGACCGCAGGAUCCAGCGGCCGGUACUCAGCAGGGAAGAGGAACAGAAUGGGACCUGAGCAAAGGCCUCUUACUAACCACAGAGUCAACAGAGGAUUGAGCAUCA
B2: chr17:66251843:66251844:+_ENSG00000196704_ENST00000359783|hu_mus|motif|central (ssRNA)
RNA: GGGAGUUCUACAGUCCGACGAUCAAGUAUGUGUCCGAUCUCAUGGGUUAAAGUCUUACAGGAUCGCAACAGCAAAACACGGGUGAUUUCAGGGAUGUAAUAGUUAUCAAAAAUGGAGUAGUCAGUGGGAGACGUUAGCUGCAGCAACAGAGGAUUGAGCAUCA
B3: chr2:37230337:37230338:-_ENSMUSG00000075376_ENSMUST00000100143|mus_mus|motif|central (ssRNA)
RNA: GGGAGUUCUACAGUCCGACGAUCAAAUAGAAAUAAGUUAAUUAACUCUACUUUCACUAGAUGUAUCAUUGUAGGAUCCUGCGGGUUUAAUAACUGAGUUGUUAAUUUACUGUAGAAGCCAUUUAAAAUAGGAAAUGGCUCAGUCAACAGAGGAUUGAGCAUCA
B4: chr7:54825262:54825263:-_ENSG00000132432_ENST00000352861|hu_hu|hu_hu_hu_mus_False|78_88 (ssRNA)
RNA: GGGAGUUCUACAGUCCGACGAUCCUGCCGGCUGGGCUCCACAAACUUUACCUGAUCCAUGACUGCCGUUGGAUGGCGGAUUGAGAGCGUAGAGACACGUAGCUCAGGAGAGAACCGAGCCCAACGGAACCGGAAGCUGGCAACCAACAGAGGAUUGAGCAUCA
B5: 7480480_7480778_697_CDS_ENSG00000161960_ENST00000293831|human|control|control (ssRNA)
RNA: GGGAGUUCUACAGUCCGACGAUCGCGGAUACCCUCCAGGGUCAACUCUUCCUUCUUGACAAGAAUCCGAAUGGGGUCCCUCAUGAACUUCUUGGUCACCUCAAGCACAUCAGAAGGCAUUGUGGCUGACAGCAAAACUACCUGCAACAGAGGAUUGAGCAUCA
B6: chr14:78183846:78183847:+_ENSG00000119705_ENST00000557342|hu_hu|hu_hu_hu_mus_False|68_78 (ssRNA)
RNA: GGGAGUUCUACAGUCCGACGAUCUCUCAGAAAUCUUUCUUCAUCAGAUGUUUGAGCUGUUUGCGGAAGUUUUGGCCUUUGAGCUUGAACGUGGAUCUAUGGGAGGGAAAGCACUGUCAGAAAAGGUAAUUUUUUUUUUAAAGACAACAGAGGAUUGAGCAUCA
B7: chr18:78020638:78020639:+_ENSMUSG00000025428_ENSMUST00000026495|mus_hu|FALSE|FALSE (ssRNA)
RNA: GGGAGUUCUACAGUCCGACGAUCAUCAGCCCUGAUAGUGCCCAACAAGGCUUGGUGCUGGCUGACGACAUGAGACAAGAAAGCAUUCUCAAACUUUGUAAUCUUGCUGGGCUCCAGUUUAUCAAGAUAUCCCCUUACACCCGCCAACAGAGGAUUGAGCAUCA
B8: 37444613_37445649_2279_CDS_ENSMUSG00000026113_ENSMUST00000027287|mouse|control|control (ssRNA)
RNA: GGGAGUUCUACAGUCCGACGAUCACAGAUGAGGGCUGUCAGGGUUUGGCAGAAGACGACGUCACGGCGAUACUGCAGGCUGAGGUACGAGGCAAUGGUGGGGGCACUGUCCUGCAUGAGCAGGAAGACCAUGGCUGCCUUGGCCAACAGAGGAUUGAGCAUCA
B9: 23048678_23050075_2025_CDS_ENSMUSG00000026775_ENSMUST00000028117|mouse|control|control (ssRNA)
RNA: GGGAGUUCUACAGUCCGACGAUCAGUUUCAUUCCAUCUGUCAUUCUCAGGCAACAGUGAUACAUGCCCAAGUGUUGGCCCUCGAGGCAUGAUUGUAGCUUUAUUAAUUGGCAUUGCAUCCUUUGUGUAAUAUGCAAUAAUAGCCAACAGAGGAUUGAGCAUCA
B10: chr3:67279072:67279073:+_ENSMUSG00000027774_ENSMUST00000077271|mus_mus|motif|central (ssRNA)
RNA: GGGAGUUCUACAGUCCGACGAUCUGCCCAGAAUCCUACCUCUUGAUGAGAGGACUGUGAGUUUUGAGGCCAACAGGGGCGGUAUACACACAGCCCUUAUGUCCAAAAAAAAAAAAAGCAGUGAAGUAAAUUUAUAUAUAUUUUCAACAGAGGAUUGAGCAUCA
B11: chr14:89338683:89338684:+_ENSG00000165533_ENST00000346301|hu_hu|hu_hu_hu_mus_False|38_38 (ssRNA)
RNA: GGGAGUUCUACAGUCCGACGAUCGUGGUUGUUGUGGACCAGGGCCAGCCUGAAGCAUUGGUGGGCCAAGUUUGUAUCUCCGAUUCCCACAGCUAUGUGUCCCAAGUUGUACCAGACAUCAGCUGCCUCUUCUUCAUUUUCAGCCAACAGAGGAUUGAGCAUCA
B12: chr1:39494447:39494448:+_ENSG00000168653_ENST00000372967|hu_mus|hu_hu_hu_mus_False|88_108 (ssRNA)
RNA: GGGAGUUCUACAGUCCGACGAUCGCAUCGACCAGCCUUCUUAUAGGGCUGUUCACCGCUUAGGAACAUAAAGUGCCGGUCCAGGCUGAUGCCCAGCUUUUUCUGUAUGUCAAGGAAAGGCAUGGCUCUGCAGUGCCCUUGUCACAACAGAGGAUUGAGCAUCA
B13: chr12:21788615:21788616:-_ENSG00000111716_ENST00000350669|hu_hu|FALSE|FALSE (ssRNA)
RNA: GGGAGUUCUACAGUCCGACGAUCCUGGUUGAUAACGCUGGUUAAUCCCCGGGCAUUGAGGAUACAUGGAAGGCUCAGGAAGACUUCAUUCUCAAUGCCAUACAUCCCCUUUACCAUUGUUGACACGGGAUGAAUCCUGGAUAGCAACAGAGGAUUGAGCAUCA
B14: 115159941_115160061_2324_CDS_ENSMUSG00000032437_ENSMUST00000035010|mouse|control|control (ssRNA)
RNA: GGGAGUUCUACAGUCCGACGAUCGAGGAACUUGUUGAUAUCGUCCCCGGAAUAGCCAAUCACUCCUCCGAAAAUAACCAACACAUAAUCGACAUCAAGGGACCUCAUGAUUUUAUAGGCGGCCGUUUCAUUGGAAGACAUAGCCAACAGAGGAUUGAGCAUCA

The list shows a part of the results.

This assay concerns the target T1, UNK ZnF1-3. Nature of the assay: nsRBNS (natural sequence RNA bind-n-seq); RBNS binding buffer (assumed for nsRBNS): 25 mM Tris pH 7.5, 150 mM KCl, 3 mM MgCl2, 0.01% Triton X-100, 500 ug/ml BSA, 20 U/ml SUPERase-In, 4 C; UNK is unkempt and MSI1 is Musashi-1; names of the RNAs are library labels; protein concentration not given here; high values mean tight binding.
B1 had a binding signal of 1.44 enrichment R.
As for B2, the figure is 2.36 enrichment R; as for B3, 0.737 enrichment R; as for B4, 1.4 enrichment R.
As for B5, the figure is 1.17 enrichment R; as for B6, 2.15 enrichment R; as for B7, 1.37 enrichment R.
With B8 the figure was 1.27 enrichment R; with B9, 0.804 enrichment R.
Consider B10, for which the binding signal was found to be 1.43 enrichment R.
With B11 the figure was 0.875 enrichment R.
The molecule B12 yielded a binding signal of 0.901 enrichment R.
As for B13, the figure is 0.497 enrichment R; as for B14, 0.919 enrichment R.
